PubChem BioAssay (EPA / NIEHS)
The source holds more than one record for some entries. The list is limited to them. An entry can have further records. Results that share an entry are repeated measurements in other runs, samples, wells, individuals or studies. Records with an inconclusive call do not appear. Rule for the calls, unless noted: active = hit-call score of the fitted dose curve at least 0.9, where 1 is the maximum; inconclusive = response in the unintended direction; inactive = score below 0.9. Some compounds were tested as several samples or in several runs, with calls that do not always agree.

Assays:
[1] = target: bovine Estrogen Receptor (ER), ESR1 (gene 407238) (UniProt P49884); assay: NVS_NR_bER: NovaScreen (NVS) Nuclear Receptor Binding Assay for bovine Estrogen Receptor (ER) (AID 2283345);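 note: actives lower the bound radioligand count which means they displace the ER ligand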
Outline: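 Cell-free radioligand binding with bovine uterine membrane extracts, read 18 hours after dosing by scintillation counting. Loss of signal versus DMSO baseline indicates displacement. Primary screen run in duplicate at 25 uM, actives followed in concentration series.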

[2] = target: Nuclear receptor subfamily 1 group I member 2 (Homo sapiens) (UniProt O75469); assay: ATG_PXR_TRANS: Attagene TRANS-FACTORIAL HepG2 Assay for human Pregnane X Receptor (PXR) (AID 2283008)
Outline: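 HepG2 cells transiently transfected with GAL4-UAS reporter units and PXR-Gal4 chimera, exposed 24 h. Reporter mRNA quantified by RT-PCR, fluorescent labelling, HpaI digestion and capillary electrophoresis; gain of signal vs DMSO.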

[3] = target: human Retinoid X Receptor beta (RXRb), RXRB (gene 6257) (UniProt P28702); assay: ATG_RXRb_TRANS: Attagene TRANS-FACTORIAL HepG2 Assay for human Retinoid X Receptor beta (RXRb) (AID 2283013)
Outline: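 HepG2 cells were transiently transfected with multiplexed GAL4-UAS reporters and a chimeric RXRb-Gal4 construct, then exposed for 24 h. Reporter mRNA was quantified by RT-PCR, FAM labeling, HpaI digestion and capillary electrophoresis; gain of signal was scored against DMSO.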

[4] = target: Estrogen receptor (Homo sapiens) (UniProt P03372); assay: NVS_NR_hER: NovaScreen (NVS) Nuclear Receptor Binding Assay for human Estrogen Receptor (ER) (AID 2283348)
Outline: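 Radioligand competitive displacement binding to estrogen receptor from MCF7 extract, cell-free; 18 h after dosing, scintillation read-out. Primary screen in duplicate at 25 uM; actives followed up in concentration series; loss of signal vs DMSO.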

[5] = ATG_ERE_CIS: Attagene CIS-FACTORIAL HepG2 Assay for Estrogen Response Element (ERE) (AID 2282940; active = hit-call score of the fitted dose curve at least 0.9, where 1 is the maximum; inactive = score below 0.9); conditions: HepG2 ERE cis-reporter, Attagene RNA transcript; actives raise or lower the signal
Outline: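 HepG2 cells transiently transfected with cis-promoter-driven multiplexed reporter transcription units report endogenous TF activity. After 24 h compound exposure, reporter mRNA is quantified by RT-PCR with capillary electrophoresis fluorescence; bidirectional fitting versus DMSO baseline.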

[6] = target: Estrogen receptor (Homo sapiens) (UniProt P03372); assay: ATG_ERa_TRANS: Attagene TRANS-FACTORIAL HepG2 Assay for human Estrogen Receptor alpha (ERa) (AID 2282970); conditions: HepG2 Attagene TRANS ERa GAL4 reporter, mRNA
Outline: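 HepG2 cells transiently transfected with multiplexed GAL4-UAS reporter units read out chimeric NR-Gal4 activity. After 24 h compound exposure, reporter mRNA was quantified by RT-PCR, 6-FAM labeling, HpaI digestion and capillary electrophoresis, relative to DMSO.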

[7] = target: rat Mineralocorticoid Receptor (MR), Nr3c2 (gene 25672) (UniProt P22199); assay: NVS_NR_rMR: NovaScreen (NVS) Nuclear Receptor Binding Assay for rat Mineralocorticoid Receptor (MR) (AID 2283355)
Outline: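 Cell-free radioligand binding to mineralocorticoid receptor from adrenalectomized rat brain supernatant, scintillation counting after 24 h. Primary screen in duplicate at 25 uM; actives retested in concentration series. Loss of specific binding versus DMSO.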

[8] = target: Glucocorticoid receptor (Homo sapiens) (UniProt P04150); assay: NVS_NR_hGR: NovaScreen (NVS) Nuclear Receptor Binding Assay for human Glucocorticoid Receptor (GR) (AID 2283363);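 note: activity is loss of specific radioligand binding signal relative to DMSO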
Outline: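 Cell-free radioligand displacement assay on extracted human GR, read 16 h after dosing by filter-based scintillation counting. Screened in duplicate at 25 uM, then concentration series for actives; loss of signal versus DMSO baseline.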

[9] = ACEA_ER_80hr: ACEA Biosciences xCELLigence Real-Time Cell Analysis on Estrogen Receptor Agonism for Proliferation (AID 2282667); conditions: T47D proliferation, impedance (xCELLigence), 80 h
Outline: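 T-47D cells monitored by electrical impedance (xCELLigence) with compound present throughout; 80 h timepoint, positive-direction fitting versus DMSO. Eight-point 1:4 dilutions from 100 uM final, duplicate plates.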

[10] = ATG_E_Box_CIS: Attagene CIS-FACTORIAL HepG2 Assay for human Enhancer Box (E-box) (AID 2282936; active = hit-call score of the fitted dose curve at least 0.9, where 1 is the maximum; inactive = score below 0.9); conditions: HepG2 E-box cis-reporter transcription, actives raise or lower the signal
Outline: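 HepG2 cells transiently transfected with multiplexed cis-element reporter units, dosed 24 h; reporter mRNA quantified by RT-PCR, 6-FAM labelling, HpaI digestion and capillary electrophoresis. E-box (USF1) signal fitted bidirectionally vs DMSO.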

Chain of UniProt P49884 (P49884 whole entry, looked up): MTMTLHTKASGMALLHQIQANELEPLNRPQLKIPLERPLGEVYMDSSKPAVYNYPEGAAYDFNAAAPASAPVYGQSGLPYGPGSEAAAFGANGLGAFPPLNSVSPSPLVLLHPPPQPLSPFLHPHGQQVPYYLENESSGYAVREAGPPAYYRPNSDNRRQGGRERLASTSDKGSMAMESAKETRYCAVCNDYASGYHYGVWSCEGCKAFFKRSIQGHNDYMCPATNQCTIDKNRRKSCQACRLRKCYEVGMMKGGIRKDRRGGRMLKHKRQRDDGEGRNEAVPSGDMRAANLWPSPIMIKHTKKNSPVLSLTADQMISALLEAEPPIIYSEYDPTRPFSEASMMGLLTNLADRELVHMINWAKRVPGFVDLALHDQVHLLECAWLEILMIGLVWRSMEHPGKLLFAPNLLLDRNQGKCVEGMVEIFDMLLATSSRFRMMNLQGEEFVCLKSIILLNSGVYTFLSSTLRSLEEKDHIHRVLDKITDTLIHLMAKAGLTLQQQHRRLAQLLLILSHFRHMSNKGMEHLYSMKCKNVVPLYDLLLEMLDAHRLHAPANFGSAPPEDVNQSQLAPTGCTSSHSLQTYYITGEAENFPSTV
Chain of UniProt P22199 (P22199 whole entry, looked up): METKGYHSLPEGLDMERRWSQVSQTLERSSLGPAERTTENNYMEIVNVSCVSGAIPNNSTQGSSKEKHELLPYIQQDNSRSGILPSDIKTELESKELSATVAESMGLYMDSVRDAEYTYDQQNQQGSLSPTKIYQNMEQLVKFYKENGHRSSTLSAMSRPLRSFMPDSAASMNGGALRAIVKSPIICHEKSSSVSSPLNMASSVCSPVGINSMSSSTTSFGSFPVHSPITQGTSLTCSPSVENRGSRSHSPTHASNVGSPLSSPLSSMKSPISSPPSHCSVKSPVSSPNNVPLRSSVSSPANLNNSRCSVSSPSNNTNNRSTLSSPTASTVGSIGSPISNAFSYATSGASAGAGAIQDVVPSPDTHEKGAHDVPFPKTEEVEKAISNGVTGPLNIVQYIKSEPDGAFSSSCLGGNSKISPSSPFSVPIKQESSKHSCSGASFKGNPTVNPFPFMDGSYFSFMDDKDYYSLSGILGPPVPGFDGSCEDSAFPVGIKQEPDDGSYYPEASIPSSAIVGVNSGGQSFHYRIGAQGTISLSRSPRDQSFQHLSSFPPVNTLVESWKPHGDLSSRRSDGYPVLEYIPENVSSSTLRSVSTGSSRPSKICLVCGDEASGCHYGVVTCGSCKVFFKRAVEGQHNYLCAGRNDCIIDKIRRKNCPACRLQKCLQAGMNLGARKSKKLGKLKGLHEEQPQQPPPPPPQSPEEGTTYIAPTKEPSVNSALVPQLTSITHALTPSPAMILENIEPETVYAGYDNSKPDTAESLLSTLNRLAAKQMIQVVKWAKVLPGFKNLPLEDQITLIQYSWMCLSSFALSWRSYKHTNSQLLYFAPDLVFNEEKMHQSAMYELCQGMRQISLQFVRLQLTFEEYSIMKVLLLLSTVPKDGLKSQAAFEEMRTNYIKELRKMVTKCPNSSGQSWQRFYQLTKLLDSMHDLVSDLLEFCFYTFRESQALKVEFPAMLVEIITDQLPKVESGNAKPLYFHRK
Chain of UniProt P04150 (P04150 whole entry, looked up): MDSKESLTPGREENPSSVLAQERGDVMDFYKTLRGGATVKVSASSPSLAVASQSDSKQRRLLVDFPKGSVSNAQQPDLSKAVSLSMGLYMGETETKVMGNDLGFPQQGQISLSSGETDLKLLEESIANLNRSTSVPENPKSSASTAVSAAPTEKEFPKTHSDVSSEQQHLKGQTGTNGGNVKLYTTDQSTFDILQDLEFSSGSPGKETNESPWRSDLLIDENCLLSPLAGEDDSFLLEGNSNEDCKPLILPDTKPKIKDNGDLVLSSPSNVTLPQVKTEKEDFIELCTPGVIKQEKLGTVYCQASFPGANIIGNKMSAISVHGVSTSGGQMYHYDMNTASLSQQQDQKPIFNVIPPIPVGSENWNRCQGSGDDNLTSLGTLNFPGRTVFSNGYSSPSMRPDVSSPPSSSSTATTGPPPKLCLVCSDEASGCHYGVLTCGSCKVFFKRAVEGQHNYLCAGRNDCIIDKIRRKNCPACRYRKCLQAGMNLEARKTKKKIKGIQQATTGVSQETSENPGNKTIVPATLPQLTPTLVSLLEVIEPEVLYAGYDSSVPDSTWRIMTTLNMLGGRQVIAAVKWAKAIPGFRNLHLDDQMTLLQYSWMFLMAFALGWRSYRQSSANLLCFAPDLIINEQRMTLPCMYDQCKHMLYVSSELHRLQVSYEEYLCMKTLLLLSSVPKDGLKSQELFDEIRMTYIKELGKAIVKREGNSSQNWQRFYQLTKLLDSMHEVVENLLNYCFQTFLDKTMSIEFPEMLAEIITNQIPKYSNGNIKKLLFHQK
Chain of UniProt P28702 (P28702 whole entry, looked up, the tested form may be a part): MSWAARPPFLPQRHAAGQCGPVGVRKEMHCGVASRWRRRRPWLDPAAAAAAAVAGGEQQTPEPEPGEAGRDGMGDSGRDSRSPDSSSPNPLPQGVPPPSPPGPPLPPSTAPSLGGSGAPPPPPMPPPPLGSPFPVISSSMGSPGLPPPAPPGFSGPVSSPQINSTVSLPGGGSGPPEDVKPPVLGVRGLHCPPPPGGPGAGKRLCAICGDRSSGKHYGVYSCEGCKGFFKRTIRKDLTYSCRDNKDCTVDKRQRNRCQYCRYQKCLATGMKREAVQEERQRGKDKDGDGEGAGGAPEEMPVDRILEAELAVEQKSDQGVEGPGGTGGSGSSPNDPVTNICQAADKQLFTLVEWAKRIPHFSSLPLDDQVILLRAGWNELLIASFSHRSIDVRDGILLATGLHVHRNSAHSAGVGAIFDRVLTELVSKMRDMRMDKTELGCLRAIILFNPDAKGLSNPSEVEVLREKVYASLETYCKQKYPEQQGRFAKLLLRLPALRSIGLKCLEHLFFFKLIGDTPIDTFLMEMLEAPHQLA
Chain of UniProt P03372 (P03372 whole entry, looked up, the tested form may be a part): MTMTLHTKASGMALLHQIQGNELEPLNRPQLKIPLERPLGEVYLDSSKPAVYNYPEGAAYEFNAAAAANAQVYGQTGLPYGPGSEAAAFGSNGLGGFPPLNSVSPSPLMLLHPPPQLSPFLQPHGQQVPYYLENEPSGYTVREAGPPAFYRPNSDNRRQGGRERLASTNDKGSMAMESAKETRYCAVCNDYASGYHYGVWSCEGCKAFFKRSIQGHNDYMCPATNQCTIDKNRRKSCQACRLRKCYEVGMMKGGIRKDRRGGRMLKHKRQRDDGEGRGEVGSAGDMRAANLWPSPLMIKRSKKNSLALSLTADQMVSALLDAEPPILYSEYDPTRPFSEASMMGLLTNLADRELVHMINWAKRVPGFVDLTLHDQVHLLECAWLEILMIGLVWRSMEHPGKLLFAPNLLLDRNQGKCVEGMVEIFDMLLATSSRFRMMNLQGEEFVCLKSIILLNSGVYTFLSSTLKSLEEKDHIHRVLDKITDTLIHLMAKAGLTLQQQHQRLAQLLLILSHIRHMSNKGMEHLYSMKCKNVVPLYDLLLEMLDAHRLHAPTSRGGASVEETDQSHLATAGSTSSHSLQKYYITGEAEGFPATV
Chain of UniProt O75469 (O75469 whole entry, looked up, the tested form may be a part): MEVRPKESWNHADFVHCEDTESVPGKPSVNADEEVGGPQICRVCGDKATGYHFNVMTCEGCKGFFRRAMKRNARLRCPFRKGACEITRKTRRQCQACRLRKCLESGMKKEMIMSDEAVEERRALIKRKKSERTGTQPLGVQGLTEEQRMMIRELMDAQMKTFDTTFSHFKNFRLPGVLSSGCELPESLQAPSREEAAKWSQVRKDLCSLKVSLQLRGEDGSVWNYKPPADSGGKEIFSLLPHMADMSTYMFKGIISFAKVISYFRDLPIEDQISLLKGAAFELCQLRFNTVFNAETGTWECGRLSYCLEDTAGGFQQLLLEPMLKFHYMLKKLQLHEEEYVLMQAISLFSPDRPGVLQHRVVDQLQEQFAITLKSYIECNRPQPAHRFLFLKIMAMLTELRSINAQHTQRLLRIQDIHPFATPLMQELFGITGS

For `C[C@]12CC[C@@H]3c4ccc(O)cc4C[C@@H](CCCCCCCCCS(=O)CCCC(F)(F)C(F)(F)F)[C@H]3[C@@H]1CC[C@@H]2O` (some centres not stated), the AC50 [1] was “active: 31 nM, 1.02 µM, 369 nM, 6.43 µM [separate samples]”.
For `CC(C)CCCCCCc1ccc(O)cc1`, the AC50 [2] was “active: 3.84, 2.78, 18.3, 3.06 µM [separate samples]”, the AC50 [3] was “active: 1.65, 2.15, 4.87, 1.37 µM [separate samples]” and the AC50 [4] was “active: 6.1, 1.29, 15.2, 14.6 µM [separate samples]”.
In the case of `O=C(c1ccc(O)cc1O)c1ccc(O)cc1O`, the AC50 [1] is reported as “active: 800, 334, 224, 613 nM [separate samples]”.
For `CCOC(=O)c1ccc(O)cc1`, the AC50 [5] was “active: 42.6, 27.6, 44.5, 8.03 µM [separate samples]” and the AC50 [6] was “active: 34.3, 27.5, 78.9, 7.82 µM [separate samples]”.
In the case of `C[C@]12C[C@H](O)[C@H]3[C@@H](CCC4=CC(=O)CC[C@@]43C)[C@@H]1CC[C@@H]2C(=O)CO`, the AC50 [5] is reported as “active: 76.5, 41.7, 41.2, 6.18 µM [separate samples]”, the AC50 [7] is reported as “active: 4.16, 18, 2.29, 4.01 nM [separate samples]” and the AC50 [8] is reported as “active: 16.6, 5.05, 3.3, 5.62 nM [separate samples]”.
For `C#C[C@]1(O)CC[C@H]2[C@@H]3CCC4=CC(=O)CC[C@@H]4[C@H]3CC[C@@]21CC`, the AC50 [5] was “active: 148, 274, 189, 351, 554 nM [separate samples]”, the AC50 [6] was “active: 127, 88.6, 393, 198, 81.1 nM [separate samples]” and the AC50 [4] was “active: 3.24 µM, 877 nM, 11.8 nM, 2.11 µM, 1.17 µM [separate samples]”. For the same molecule, the AC50 [8] was “active: 24.5, 10.2, 11.5, 7.92 nM [separate samples]”.
For `N[C@@H](Cc1cc(I)c(Oc2ccc(O)c(I)c2)c(I)c1)C(=O)O`, the AC50 [8] was “active: 2.49 µM, 1.06 µM, 1.93 µM, 772 nM [separate samples]”.
For `CC(=O)[C@H]1CC[C@H]2[C@@H]3CCC4=CC(=O)CC[C@]4(C)[C@H]3CC[C@]12C`, the AC50 [9] was “active: 2.71 nM, 0.68 nM, 140 nM, 3.45 µM [separate samples]” and the AC50 [10] was “active: 12.7, 13.6, 19.3, 100 µM [separate samples]”.
